PubChem BioAssay AID651820 (National Center for Advancing Translational Sciences (NCATS), 2012)
In all, about 340,000 compounds went through this assay and about 12,000 (3.5%) were called active. The inconclusive results got no clear call from the source; some entries with a clear call stand among them for comparison. Calls come from the whole dose curve; as a rule, active = well fitted inhibition curve with a large enough effect; inconclusive = small, poorly fitted or top-dose-only effect, or another doubt; inactive = no such curve, though single readings can be large or run the other way. Potencies of inconclusive entries are left out as doubtful fits.

Assay: qHTS Assay for Inhibitors of Hepatitis C Virus (HCV)
Conditions: Huh7.5.1 HCVcc-Cre (HCVcc is cell-culture hepatitis C virus) infection, luciferase reporter, 44 h; activity change, negative = inhibition: at 41.8 µM (top of the series)
Summary of the method: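 Reporter virus HCVcc-Cre (~0.5 moi) infects cells exposed to compound; seeding density 1,000 cells/well with 4 h settling beforehand. Luminescence, 15 sec read, taken 44 h post-infection following a 15 min RT substrate incubation.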
% is set by controls: 0 for no effect and ±100 for the full control effect; potency is the fitted concentration of half-maximal effect; tags give direction and shape of the fitted curve.

Row | SMILES | activity change, negative = inhibition | Potency
1 | COc1ccc(Cl)cc1-n1c(C)ccc1C | inactive: -11.7% | –
2 | O=c1c2ccccc2nc(CSc2nnnn2-c2ccccc2)n1-c1ccccc1 | – | inconclusive [inhibitor, single point]
3 | COc1cc(Cl)c(C)cc1NC(=O)c1ccccc1NC(=O)CN1CCN(c2ccccn2)CC1 | – | inconclusive [inhibitor, single point]
4 | O=C(CN1CCOCC1)N(c1ccccc1)c1ccc2ccccc2c1 | inactive: -4.22% | –
5 | CC(=O)COc1nc2c(c(-c3ccco3)c1C#N)CCc1ccccc1-2 | – | active: 11.2 µM
6 | COc1ccc(S(=O)(=O)c2cnc3ccc(OC)cc3c2N2CCC3(CC2)OCCO3)cc1 | – | inconclusive [inhibitor, partial curve]
7 | COc1cc(O)oc1C=Nc1ccccc1 | inactive: -1.12% | –
8 | O=C(CSc1nnc(-c2cccnc2)n1Cc1ccco1)Nc1nc(-c2ccc(F)cc2)cs1 | – | active: 25.1 µM
9 | Cc1noc(C)c1S(=O)(=O)N1CCCC(C(=O)NCc2ccccn2)C1 (configuration not stated) | – | inconclusive [inhibitor, single point]
10 | FC(F)Sc1ccc(NC(=S)NCc2ccccc2)cc1 | – | inconclusive [inhibitor, single point]
11 | COc1ccc(N=Nc2cc(OC)c(N)cc2OC)cc1 | – | inconclusive [inhibitor, single point]
12 | COc1ccc(CNC(=S)NC(C)CCc2ccccc2)cc1 (configuration not stated) | inactive: -20.3% | –
13 | CC1(CC(=O)N/N=C/c2ccc(-c3ccc(Cl)cc3)o2)OCCO1 | inactive: -11.2% | –
14 | O=C(Cc1cccs1)N/N=C\c1ccc([N+](=O)[O-])s1 | – | inconclusive [inhibitor, single point]
15 | CC(C)c1ccc(CNC(=O)C2CCCN2S(=O)(=O)c2ccccc2)cc1 (configuration not stated) | – | inconclusive [inhibitor, partial curve]
16 | O=C(CN1C(=O)NC2(CCCC2)C1=O)Nc1ccccc1N1CCCCC1 | – | inconclusive [inhibitor, partial curve, poor fit]
17 | COCCN(C(=S)Nc1ccc(OC)cc1)C1CCN(C(C)=O)CC1 | inactive: 3.77% | –
18 | Cc1ccc(NC(=O)c2cc3ccccc3o2)cc1S(=O)(=O)N(C)C | – | active: 11.2 µM
19 | CN(CC(=O)Nc1ccc(Cl)cc1)C(=O)c1ccc(S(=O)(=O)Nc2ccccc2)cc1 | inconclusive: -98.1% [inhibitor] | –

Row | SMILES | activity change, negative = inhibition | Potency
20 | COc1ccc(N=Cc2ccc(-c3ccccc3)o2)cc1 | inactive: -8.71% | –
21 | C[C@@H]1CN(C(=O)c2nc3ccc(Cl)cn3c2CNCC[C@@H]2C[C@@H]3C=C[C@H]2C3)C[C@H](C)O1 | inconclusive: -36.9% [inhibitor] | –
22 | Nc1nonc1-n1nnc(C(=O)N/N=C/c2ccco2)c1CSc1ccccc1 | inactive: 0.352% | –
23 | O=C(NCc1ccc2c(c1)OCO2)C(=O)NCC(c1ccco1)N1CCN(c2ccccc2)CC1 (configuration not stated) | – | inconclusive [inhibitor, full curve, poor fit]
24 | COc1cc(C(=O)Nc2ccc(S(=O)(=O)N3CCCCC3C)cc2)cc(OC)c1OC (configuration not stated) | – | active: 12.6 µM
25 | Cc1ccc(Cl)cc1NC(=O)CCC(=O)Nc1cc(Cl)ccc1C | inactive: 27.8% | –
26 | NC(=O)c1ccc(NC(=O)CS(=O)(=O)c2cn(CC(=O)N3CCCC3)c3ccccc23)cc1 | inactive: 17.8% | –
27 | O=C(NCc1ccc2c(c1)OCO2)C1CCN(S(=O)(=O)N2CCCCC2)CC1 | inactive: 26.9% | –
28 | CC1CCCCN1S(=O)(=O)c1ccc(S(=O)(=O)N(Cc2ccccc2)Cc2ccco2)cc1 (configuration not stated) | inactive: 1.4% | –
29 | Cc1cccn2c(=O)c(C=O)c(Nc3ccccc3)nc12 | – | inconclusive [inhibitor, partial curve]
30 | Cc1ccc(NC(=O)C(=O)NCC2OCCc3ccccc32)cc1 (configuration not stated) | inactive: 1.79% | –
31 | Cc1ccc(C(C(=O)Nc2ccc3c(c2)OCO3)N(C)C(=O)Cc2c[nH]c3ccccc23)cc1 (configuration not stated) | inactive: -13.5% | –
32 | CN(CC(=O)Nc1ccccc1Cl)C(=O)c1cc(-c2cccs2)nn1-c1ccccc1 | – | inconclusive [inhibitor, full curve, poor fit]
33 | Oc1ccccc1N=N/C(=N/Nc1ccccc1O)c1ccccc1 | inactive: 3.84% [at 8.37 µM] | –
34 | COc1ccc(OC)c(CCNC(=O)Cn2nc(C)c3c(C)n(-c4ccc(C)cc4)nc3c2=O)c1 | – | active: 1.12 µM
35 | CC(=O)Nc1cccc(Oc2nc(-c3ccccn3)nc3ccccc23)c1 | – | inconclusive [inhibitor, single point]
36 | CCNC(=O)NC(=O)C(C)OC(=O)c1c(C)nn(Cc2ccccc2Cl)c1Cl (configuration not stated) | – | inconclusive [inhibitor, single point]
37 | CCOC(=O)C1CCN(C(=O)CCNC(=O)Cn2ccc3ccccc3c2=O)CC1 | – | inconclusive [inhibitor, full curve]
